Over roughly 33,000 sequences, “E-score (-0.5 to 0.5)” has its median near -0.054; the highest 2% begin near 0.35. Some of the results follow.
Each sequence was assayed against T1, Stb5 (UniProt P38699) (assay: PBM E-score (8-mer binding enrichment) (E-score (-0.5 to 0.5)); higher = stronger / more preferred TF binding; most listed sequences are background and not binding sites). Details: protein concentration: 200 nM; construct: GST-full length.
T1 sequence: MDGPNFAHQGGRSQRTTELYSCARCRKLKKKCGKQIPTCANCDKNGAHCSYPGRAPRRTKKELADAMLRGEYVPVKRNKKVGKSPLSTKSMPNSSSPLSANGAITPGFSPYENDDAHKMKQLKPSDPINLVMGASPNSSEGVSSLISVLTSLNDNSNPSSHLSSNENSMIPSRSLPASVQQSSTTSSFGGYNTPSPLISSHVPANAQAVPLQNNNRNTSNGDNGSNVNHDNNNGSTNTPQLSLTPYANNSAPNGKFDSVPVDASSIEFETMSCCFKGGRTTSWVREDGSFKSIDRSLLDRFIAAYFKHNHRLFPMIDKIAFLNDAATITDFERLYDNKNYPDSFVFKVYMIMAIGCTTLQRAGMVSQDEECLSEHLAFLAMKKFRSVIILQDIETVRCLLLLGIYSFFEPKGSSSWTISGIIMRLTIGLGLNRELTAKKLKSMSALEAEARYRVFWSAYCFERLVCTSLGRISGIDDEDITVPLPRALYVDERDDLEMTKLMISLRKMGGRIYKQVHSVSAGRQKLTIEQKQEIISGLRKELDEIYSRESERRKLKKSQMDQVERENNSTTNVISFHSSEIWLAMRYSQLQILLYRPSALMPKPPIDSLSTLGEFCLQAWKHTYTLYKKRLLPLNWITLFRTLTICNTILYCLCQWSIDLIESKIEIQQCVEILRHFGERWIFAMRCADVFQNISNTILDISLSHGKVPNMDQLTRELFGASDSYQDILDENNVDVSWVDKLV
Protocol: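 Universal 'all 10-mer' protein binding microarrays (Agilent AMADID 015681) probed with GST-tagged S. cerevisiae TFs (full-length or DBD) made by in vitro transcription/translation (PURExpress), about 100-200 nM. Bound TF was detected with fluorescent anti-GST. Each ungapped 8-mer (which stands for itself and its reverse complement) is scored by the PBM enrichment score (E-score), a modified Wilcoxon-Mann-Whitney statistic from -0.5 to +0.5, computed with the Universal PBM Analysis Suite. Scale: above 0.35 generally sequence-specific binding.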

Sequence	PBM E-score
AAGTTATT	-0.0193
ACCTTCAT	0.0802
GGCCATCA	-0.154
ACGCTAAA	-0.162
GATCTGAA	-0.185
CCTAGGAA	-0.181
ATAAAGTG	-0.164
CTGAAGCC	-0.00186
CCTTTACG	-0.0771
AATGGAAT	-0.149
GATGTCTA	-0.144
CAGTACGC	-0.143
CTGACTCA	-0.14
ATAGTTTC	-0.143
ACTAGATA	-0.0499
CAATGTGG	-0.217
CTGCCCGC	0.06
GCACGGGA	0.147
GACCTTTA	0.0314
GAAGCGTA	-0.132
CGGTTATA	0.37
AACTGGAT	-0.146
AATCTATC	-0.0149
ACTGAGGC	-0.179
CAGTGCCC	0.00392

Sequence	PBM E-score
AATACTCC	0.173
CTTATCCC	0.0404
CGTCGGGC	0.361
GAACTAAC	0.0376
GCCTCTAA	-0.0692
CGATAACC	0.16
CCTTTCCA	0.0223
ATCCATCA	-0.29
GGTCAGAC	-0.106
AAAACATT	-0.255
CCATTAAG	0.00816
GCAATGAC	-0.137
TCCCACAA	0.0012
CGGTAGTC	0.18
ACCAGGCG	0.0866
GAAGTCTA	-0.207
ATGCAAGA	-0.163
AGGATAAT	-0.0958
AGCATCGA	-0.133
AACATCTT	0.0125
TGTGCGAA	-0.201
CAAGTAGG	-0.242
GACCTCTA	-0.195
AAACACGC	0.0764
ACGTCGCG	-0.0918

Sequence	PBM E-score
GTCATAAA	0.0467
GACGATCA	-0.17
AACATCGC	0.0424
GCTTTGGA	-0.0727
AATTGGAT	-0.0326
CAACTCCA	-0.162
ATTAAAAT	-0.0244
TAATAAGA	0.0281
CTTATTCA	-0.0668
CGGGACTC	0.184
ATCCCTGG	-0.253
AATAACTA	-0.217
CGTCGAGA	-0.112
CGGAGTAA	0.326
GACGTGGC	-0.00293
AGAAATAT	0.0277
CATCAACC	-0.058
CATTTTGC	0.0955
GGTCAACA	0.034
AGGGATAC	-0.112
AACCAGCG	-0.0594
GTTGCTGA	-0.039
CCTTTTCC	-0.13
ACAAACAC	0.11
CGCTACCA	0.156

Sequence	PBM E-score
AAACGAAC	-0.193
GGAGATGA	-0.125
TACGAGCA	-0.0236
GGTGATGA	0.0277
CAACACCA	-0.1
ATGAAGCA	-0.066
ACTTTGAC	-0.11
ACTAGAAA	-0.104
AACCCAAC	-0.152
GATTCCTA	-0.084
TAGTCCCA	-0.0173
CATTAGCG	0.122
AGCGCATG	-0.053
AGAGATGA	-0.292
AGCAGAAA	-0.0257
ATGCTCAG	-0.166
GTTCATGA	-0.152
CTCAATAC	-0.00735
ACACCCAG	-0.0423
TCCCTTCA	-0.152
AACATCGG	0.215
AATAAGGG	-0.258
CTATCCAA	-0.0612
GGCACCTA	0.0808
AGCATCTA	-0.168

Sequence	PBM E-score
CACATCGG	0.235
AAACATTG	-0.0452
AGTCGAGC	-0.308
AGTAATTC	0.16
AGAGAATA	0.0418
GTGCATTA	0.0507
GCAGCCTA	-0.171
TGTATACA	0.0199
CGAATCCA	-0.134
ATTTAAGC	0.054
CTTCATTA	-0.111
GGACCAAC	0.111
TAGCTTCA	-0.214
CGACATGA	0.0732
AGCTGACG	-0.0991
ATATTCTA	-0.0958
TAGTGATA	-0.201
CTACTTCC	0.0391
AAATGGGC	-0.165
CGAGGTAC	-0.0641
CATATGTA	-0.309
CTGTCCTC	-0.187
GACGTAGC	0.0409
ACGCTACG	-0.187
ATAGAGCA	-0.0745

Sequence	PBM E-score
GTCAGGTA	-0.145
CGTAAACA	0.115
GTATGTGA	-0.207
TGCGTGAA	0.122
CGAAACAG	-0.103
AAGGGGTA	-0.148
AACACCGA	0.479
AGGTGCAT	-0.292
CAGCTGTC	-0.31
GCTACCAC	-0.143
AACTCTCC	-0.0352
AGACATGC	-0.167
AGCCACAC	-0.266
AAACTCAT	0.0594
CGCAGATC	0.0136
CTGATACA	-0.0948
CGACTACG	0.0538
CGAGTCAA	-0.0935
CGGCGCCG	0.309
TAAACTCA	-0.0939
AAGCCTAA	-0.0259
CTAGACTC	-0.0615
ATGCATGA	-0.11
CATGAGCA	-0.162
AAGTCTCC	-0.0985

Sequence	PBM E-score
CAATTGTG	-0.133
ATACCGTC	0.357
ACGCGTCA	-0.109
GTCTGACA	0.0471
GAATCCGC	0.0516
TAACATCA	-0.16
ACCCAGGG	-0.146
CCGACCGC	0.284
TAGGACGA	-0.251
AGACCGTG	0.193
ACGTGAGC	-0.289
GCATCGAA	-0.199
AATCTACT	-0.134
AGCTCGCC	-0.178
GTCTTGCA	0.0877
GCATCACA	-0.0503
GCCTACAC	-0.0763
ATTCGTGG	-0.324
CTGCGGGA	0.144
ATAAGGAT	-0.188
CGTAATGA	0.016
CTTGAAGA	-0.229
